Experimental data reported in PubChem BioAssay AID488969 (Vanderbilt High Throughput Screening Facility, 2010).
Over roughly 110,000 compounds, “z-score” has its median near -0.1; the highest 2% begin near 2. The list shows a part of the results. Calls of active or inactive are those of the source.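 How the source made its calls: active means z-score in the third read window above 3 or below -3; inactive means the rest.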

target: Metabotropic glutamate receptor 8 (Rattus norvegicus) (UniProt P70579); assay: rat mGluR8 modulators via GIRK flux, primary screen, cell-based, thallium flux, HTS (AID 488969); conditions: HEK293 rat mGluR8, GIRK (G protein-gated inwardly rectifying potassium channel) thallium flux, FluoZin2; at 10 µM; stronger effect = higher value; submaximal glutamate (EC20) added with thallium
UniProt P70579, sequence (P70579 whole entry, looked up): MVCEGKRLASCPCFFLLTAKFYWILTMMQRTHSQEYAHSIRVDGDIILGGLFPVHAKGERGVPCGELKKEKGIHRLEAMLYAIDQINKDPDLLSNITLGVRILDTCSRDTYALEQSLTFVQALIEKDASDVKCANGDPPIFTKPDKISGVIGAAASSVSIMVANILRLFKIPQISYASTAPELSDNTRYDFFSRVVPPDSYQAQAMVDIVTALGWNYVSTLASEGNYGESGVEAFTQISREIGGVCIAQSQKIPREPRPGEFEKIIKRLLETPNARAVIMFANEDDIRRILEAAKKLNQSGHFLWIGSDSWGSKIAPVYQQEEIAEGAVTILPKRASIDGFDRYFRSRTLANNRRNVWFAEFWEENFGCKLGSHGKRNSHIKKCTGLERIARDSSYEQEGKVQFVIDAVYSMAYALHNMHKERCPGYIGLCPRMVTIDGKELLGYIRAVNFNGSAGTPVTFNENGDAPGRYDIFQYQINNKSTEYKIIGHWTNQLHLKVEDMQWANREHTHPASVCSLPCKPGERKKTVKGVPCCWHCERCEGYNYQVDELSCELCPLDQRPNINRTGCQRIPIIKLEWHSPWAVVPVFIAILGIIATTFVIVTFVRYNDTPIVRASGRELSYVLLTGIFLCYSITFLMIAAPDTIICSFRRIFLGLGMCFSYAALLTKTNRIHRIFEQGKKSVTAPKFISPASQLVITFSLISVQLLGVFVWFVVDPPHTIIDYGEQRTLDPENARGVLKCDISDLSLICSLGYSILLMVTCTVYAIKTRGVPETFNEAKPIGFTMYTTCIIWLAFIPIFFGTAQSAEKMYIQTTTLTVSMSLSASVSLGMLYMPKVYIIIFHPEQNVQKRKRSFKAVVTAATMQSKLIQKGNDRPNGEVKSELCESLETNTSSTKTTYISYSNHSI

| Structure (SMILES) | z-score |
| --- | --- |
| CCCCC1NC(=S)N(C2CCCCC2)C1=O (stereo not given) | -0.596 |
| CCn1ncc(/C=N\NC(=O)COc2cc(C)cc(C)c2)c1C | -0.0153 |
| CC1(C)CC(=O)C(CC2=C(O)CC(C)(C)CC2=O)=C(O)C1 | -0.327 |
| O=C(NCCc1ccc(Cl)cc1)/C(=C/c1cccnc1)NC(=O)c1ccccc1 | 0.243 |
| O=C(NNC(=S)Nc1cccc(C(F)(F)F)c1)c1cccc(Cl)c1 | 2.97 |
| CC(=O)Nc1cc(C(=O)NCc2ccco2)ccc1Sc1ccc(F)cc1 | -0.293 |
| O=C(c1cccc(S(=O)(=O)N2CCCCC2)c1)N1CCCCC1 | -0.33 |
| Cc1cc(C)cc(NS(=O)(=O)c2ccc(Oc3ncc(C(F)(F)F)cc3Cl)cc2)c1 | -0.356 |
| Cc1ccc(CSc2nnc([C@@H]3CCCN3)o2)cc1 | 0.148 |
| O=CNc1ccc(S(=O)(=O)NCc2ccccc2)cc1 | -0.522 |
| CC12C(=O)N(CCC(=O)O)C(=O)C1C1C=CC2C1 (stereo not given) | 0.561 |
| COc1cc(OC)c(C2C(C(=O)N3CCOCC3)=C(C)NC3=C2C(=O)CC(C)(C)C3)cc1OC (stereo not given) | -0.103 |
| COc1ccc(C2(CNC(C)=O)CCCC2)cc1OC | 0.0484 |
| CC(=O)/C(=N/Nc1ccc(Br)cc1)Sc1cccc2cccnc12 | 0.227 |
| O=C(COC(=O)c1cc([N+](=O)[O-])ccc1NCc1ccccc1)NC1CCCc2ccccc21 (stereo not given) | 0.679 |
| COc1ccc(CNc2oc(C)nc2C#N)cc1 | -0.0711 |
| O=C(CCS(=O)(=O)Cc1ccccc1)N1CCN(Cc2ccccc2)CC1 | -0.495 |
| CC1CCc2cc(F)ccc2N1C(=O)CSc1nnc2c3ccccc3n(C)c2n1 (stereo not given) | -0.143 |
| CCOC(=O)c1cccc(NC(=O)C2CCCO2)c1 (stereo not given) | 0.0911 |
| O=C(NCc1ccccc1)c1cccc(COc2ccc(Cl)cc2)c1 | -0.113 |
| O=C(ON=C1CCN(S(=O)(=O)c2ccccc2)CC1)c1cccc(Cl)c1 | 0.19 |
| Cc1ccsc1C(=O)OCC(=O)Nc1c(C)n(C)n(-c2ccccc2)c1=O | 0.018 |

| Structure (SMILES) | z-score |
| --- | --- |
| Cc1ccccc1-c1nc(CS(=O)(=O)CC(=O)N2CCc3ccccc32)c(C)o1 | -1.49 |
| CCc1ccc(OCC(=O)N/N=C2\CC(=O)c3ccccc32)cc1 | 0.325 |
| Cc1ccc(C(C)C)c(OCCN2C(=O)NC(C)(C)C2=O)c1 | -0.0276 |
| CCc1cc2c(=O)c(-c3ccc4c(c3)OCCO4)c(C)oc2cc1OS(C)(=O)=O | 0.255 |
| COc1cc(-c2csc(N3CCOCC3)n2)cc(OC)c1OC | -0.149 |
| CCCC(c1nnnn1CC1CCCO1)N1CCN(c2nc3ccccc3s2)CC1 (stereo not given) | -0.777 |
| NC(=S)N/N=C/c1cc([N+](=O)[O-])ccc1OCCOc1ccccc1 | -0.231 |
| CCOc1ccc2nc(SCC(=O)Nc3ccc4c(c3)OCCO4)[nH]c2c1 | -0.555 |
| Cc1c(C(=O)Nc2cccc(Cl)c2)cn2c(nc3ccccc32)c1C#N | 0.424 |
| CC1CCC(C(=O)c2c(O)c3ccccc3oc2=O)CC1 (stereo not given) | -0.00138 |
| Cc1ccc(-c2nnn(CC(=O)N(CC3CCCO3)C(C(=O)NC3CCCCC3)c3ccc(F)cc3)n2)o1 (stereo not given) | -0.0464 |
| CC(=O)N1CCN=C1SCc1ccc(Br)cc1 | 2.58 |
| Cc1ccc(-c2ccc(SCC(=O)Nc3ccc4c(c3)OCCO4)nn2)cc1 | -0.351 |
| CCC1(NC(C)=O)CC2CC1CC2NC(C)=O (stereo not given) | -0.273 |
| CC(=O)C1CCN(Cc2ccccc2)CC1 | -0.262 |
| CC(=O)c1cnn(-c2cc(Oc3ccc(F)cc3)ncn2)c1C | 0.354 |
| C=CCn1c(CSCc2ccc(Cl)cc2)nnc1SCC(=O)NCc1ccccc1 | -0.461 |
| O=C(COC(=O)CC1CCCC1)Nc1cc2c(cc1Cl)C(=O)c1ccccc1C2=O | -0.0898 |
| CC(OC(=O)c1cc2c(ccc3ccccc32)oc1=O)c1nc2ccccc2s1 (stereo not given) | -0.466 |
| Cc1ccc2nc(N3CC(=O)Nc4ccccc43)nc(-c3ccccc3)c2c1 | 0.188 |
| O=C1c2ccccc2C(=O)c2c1ccc(C(=O)N1CCCCC1)c2NCCO | 0.68 |
| O=C(COC(=O)c1cc[n+]([O-])cc1)NCC12CC3CC(CC(C3)C1)C2 | 0.293 |

| Structure (SMILES) | z-score |
| --- | --- |
| CCOC(=O)N1CCN(Cc2cc(=O)oc3cc4c(cc23)CCC4)CC1 | 0.328 |
| O=C(CSc1cccs1)Nc1ccc2ccccc2c1 | -0.316 |
| O=C(COC(=O)c1cc(-c2cccs2)nn1-c1ccccc1)Nc1ccc(F)c([N+](=O)[O-])c1 | -0.0381 |
| COC(=O)c1ccc(Cl)c(NS(=O)(=O)c2ccc3c(c2)OCCO3)c1 | -0.374 |
| COc1ccc(CNC(=O)c2csnn2)cc1 | 0.00744 |
| CCC(C(=O)N1CC2(C)CC1CC(C)(C)C2)N1C(=O)c2ccccc2C1=O (stereo not given) | 0.259 |
| Cc1ccc2[nH]c(C(=O)O)c(NC(=O)CN3CCN(c4cccc(C)c4C)CC3)c2c1 | -1.03 |
| NC1=NC(=O)C2(COC(c3ccccc3Cl)OC2)S1 (stereo not given) | 0.681 |
| Fc1ccc(N2CCN(Cc3nnc(-c4ccccc4)o3)CC2)cc1 | -0.203 |
| CN1CCN(CCCNC(=O)c2ccc3c(c2)N(Cc2ccccc2)CCS3)CC1 | 0.775 |
| Cc1nc2sc(C(=O)c3ccccc3)c(N)c2c2c1CCCC2 | -0.409 |
| NC(=O)c1ccccc1NC(=S)NC(=O)c1ccc(Br)o1 | -0.219 |
| Cc1cccc(NC(=O)CSc2nnc([C@@H](N)Cc3ccccc3)o2)c1C | 6.73e-05 |
| O=C(Nc1ccc2c(c1)OCCO2)NC1(C(F)(F)F)Oc2ccccc2O1 | 0.441 |
| O=C1C2C3C=CC(C3)C2C(=O)N1Cc1ccc(CN2C(=O)C3C4C=CC(C4)C3C2=O)cc1 (stereo not given) | -0.294 |
| CCn1cc(C(C)NC(=O)COc2ccc(Cl)cc2C)c(C)n1 (stereo not given) | -0.0807 |
| CCOc1ccccc1Nc1ncnc2ccccc12 | 0.098 |
| CCOc1c2c(nc3ccc(Cl)cc13)CCC2 | -0.0952 |
| CC(NC(=O)NC1CCCCC1)C(c1cccs1)N1CCN(Cc2ccccc2)CC1 (stereo not given) | -1.18 |
| COc1ccccc1NC(=O)CN1C(=O)CSC(C)C1=O (stereo not given) | -0.0441 |
| COC(=O)CSc1cc(C)nc(NC(C)=O)n1 | -0.202 |
| C/C(=N/NC(=O)c1cccs1)c1ccc(NC(=O)COc2ccc(Cl)cc2)cc1 | -0.123 |

| Structure (SMILES) | z-score |
| --- | --- |
| N#CCSc1nc2ccccc2c(=O)n1CCC(=O)NCCc1ccccc1 | 0.379 |
| Cc1nc2ncnn2c(N2CCN(C(c3ccccc3)c3ccccc3)CC2)c1C | 0.0777 |
| CCCn1nnnc1-c1cccc(Cl)c1 | -0.176 |
| CC(C)Oc1cccc(C(=O)NC(=S)Nc2ccccc2)c1 | active: 3.26 |
| O=C(COC(=O)c1ccccc1C(=O)N1CCN(c2ccccc2)CC1)Nc1ccc(F)cc1 | 0.132 |
| Cc1ccc(-c2c[n+](CC(=O)Nc3nc(-c4ccc(F)cc4)cs3)c3n2CCC3)cc1 | 0.585 |
| O=c1cc(N2CCc3ccccc3C2)[nH]c(=O)n1C1CCCCC1 | -0.223 |
| Cc1nc2ccccc2c2oc(C(=O)NCCCN3CCC(C)CC3)cc12 | 0.707 |
| CC1CCCN(C(=O)c2cc3c(-c4ccc(Cl)cc4)nn(C)c3s2)C1 (stereo not given) | 0.0374 |
| CCN(CC)C(=O)CN1C(=O)COCC1=O | 0.212 |
| COc1ccc(-c2onc3ccc(Br)cc23)cc1 | -0.14 |
| CC(c1nnnn1C(C)(C)C)N(Cc1cccnc1)Cc1ccccc1Cl (stereo not given) | -0.0427 |
| Cc1ccsc1C1C2=C(CC(C)(C)CC2=O)Nc2ncnn21 (stereo not given) | -0.396 |
| Cc1ccc(C(=O)Nc2nccs2)cc1S(=O)(=O)N1CCCCC1 | 0.0939 |
| COc1ccc(/C=N/Nc2snc(SC)c2C#N)cc1OC | 0.407 |
| O=C(O)c1ccc2nc(CO)[nH]c2c1 | -0.107 |
| COc1ccccc1CNc1cc(C)ccc1C | 1.01 |
| CCOC(=O)c1nnn(CC(=O)N2N=C(c3ccc(Cl)cc3)CC2c2ccc(OC)cc2)c1C(=O)OCC (stereo not given) | 0.387 |
| COc1ccc(C(C)=O)c(OC(=O)c2ccco2)c1 | -0.243 |
| O=C(c1cnn(-c2ccccc2)c1)c1ccc2ccccc2c1O | 0.749 |
| Cc1cc(C)cc(C(=O)NC(=S)Nc2ccc3c(c2)OCCO3)c1 | -0.353 |
| CCCCCCOc1ccc(N2C(=O)CC(S/C(N)=N/N=C(\C)c3cccs3)C2=O)cc1 (stereo not given) | -0.173 |

| Structure (SMILES) | z-score |
| --- | --- |
| Cc1c(C)n(CC(O)CN2CCCCC2)c2ccccc12 (stereo not given) | 0.093 |
| COC(=O)c1ccc(C)c(NS(=O)(=O)c2ccc(OC)c(OC)c2)c1 | 0.0216 |
| CC1(C)CC(=O)C=C(NCCO)C1 | 0.177 |
| C/C(=N/NS(=O)(=O)c1ccc(C)cc1)c1cccc(NC(=O)c2cccc(Cl)c2)c1 | -0.202 |
| COc1ccc(-c2nc3n(n2)C(c2ccncc2)C(C(N)=O)=C(C)N3)cc1 (stereo not given) | -0.0823 |
| O=C(Nc1ccccc1-c1ccccc1)c1cccc([N+](=O)[O-])c1 | -0.107 |
| CSCc1cc(N(C)C)nc(SCc2ccc(Cl)c(Cl)c2)n1 | -0.239 |
| COc1cnc(SCc2ccc(Cl)cc2)nc1Cl | -0.163 |
| O=C(Nc1ccc[n+](CC(=O)c2cccc3ccccc23)c1)c1ccccc1 | 0.182 |
| COc1ccc(N2CCN(c3ccc(NC(=O)C4CCCCC4)cc3C#N)CC2)cc1 | -0.0647 |
| Cc1sc(NC(=O)c2ccccc2)c(C(=O)N2CCN(C)CC2)c1C | 0.321 |
| COc1ccc2cc(C(=O)N3CCCCCC3)sc(=O)c2c1OC | 0.936 |
| O=C(c1ccccc1NS(=O)(=O)c1ccccc1[N+](=O)[O-])N1CCOCC1 | -0.286 |
| O=C(N/N=C/c1cccc(Oc2ccccc2)c1)c1ccccc1Br | 0.0241 |
| Cc1cc(C)c([N+](=O)[O-])cc1-c1ccc(/C=N/c2c(-c3ccco3)nc3ccccn23)o1 | -0.167 |
| COC(=O)c1cc2n3ccccc3c(C)c(-c3ccccc3)c-2c1C(=O)OC | -0.76 |
| CCOC(=O)N1CCN(CCC(=O)Nc2ccc(OC)cc2OC)CC1 | 0.353 |
| COc1ccc(-c2csc(-n3ncc(-c4cccs4)c3N)n2)cc1 | -0.78 |
| O=C(COC(=O)CC1c2ccccc2CCN1S(=O)(=O)c1ccc(F)cc1)Nc1ccccc1 (stereo not given) | -0.306 |
| C/C(=N\NC(=O)c1ccccc1)c1nc2ccccc2n1C | active: 3.71 |
| COc1ccccc1CNC(=O)C(=O)NCC1OCCN1C(=O)c1cccs1 (stereo not given) | 0.189 |
| COCCCN1C(=O)C(=O)/C(=C(/O)c2ccc(OC(C)C)cc2)C1c1ccc(O)c(OC)c1 (stereo not given) | -0.905 |
